Experimental findings from the supplement of paper PMC9446081 are described below.

Molecules are shown by their SMILES. In all, about 39,000 compounds went through this assay and about 220 (0.56%) showed activity. This is one part of the list.
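Further: static incubation at 37 °C against the wild-type strain, values averaged over two biological replicates.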

In this test the test system is Escherichia coli K-12 BW25113. Put plainly: relative growth (OD600 normalised to plate interquartile mean) (fraction); higher = less growth inhibition, active = 0.2 or less. The settings on record: 50 µM; LB; incubation time: overnight (16-24 h).
`Cc1ccc(S(=O)(=O)N(C)C[C@@H]2Oc3ccc(NC(=O)CCN4CCOCC4)cc3CC(=O)N([C@@H](C)CO)C[C@H]2C)cc1`: the relative growth is inactive: 1.03. In the case of `Cn1cnc(S(=O)(=O)N2C[C@@H](O)COC[C@@H]3O[C@@H](CC(=O)NCc4ccc(F)cc4)CC[C@H]32)c1`, the relative growth was inactive: 1.01. Regarding `COc1ccc(CN(C)C[C@H]2OCCCC[C@H](C)Oc3ccc(NC(=O)NC(C)C)cc3C(=O)N([C@H](C)CO)C[C@@H]2C)cc1`, the relative growth was inactive: 1.03. The result for `C[C@@H]1CN([C@H](C)CO)C(=O)c2cc(NC(=O)CCC(F)(F)F)ccc2O[C@@H](C)CCCCO[C@@H]1CN(C)S(=O)(=O)c1ccccc1` reads inactive: 1; that for `C[C@H]1CCCCO[C@@H](CN(C)C(=O)Nc2ccc3c(c2)OCO3)[C@@H](C)CN([C@@H](C)CO)C(=O)c2cc(NC(=O)C3CCCCC3)ccc2O1`, inactive: 0.989.

Turning to `C[C@@H]1CN([C@H](C)CO)C(=O)c2cc(NC(=O)c3ccccc3)ccc2O[C@@H](C)CCCCO[C@H]1CN(C)S(=O)(=O)c1ccccc1`, the relative growth was inactive: 1.02. `COc1ccc(S(=O)(=O)Nc2ccc3c(c2)CC(=O)N([C@@H](C)CO)C[C@@H](C)[C@H](CN(C)CC2CC2)O3)cc1`: the relative growth was inactive: 1.01. The same measure for `C[C@@H]1CCCCO[C@H](CN(C)S(=O)(=O)c2cn(C)cn2)[C@H](C)CN([C@@H](C)CO)C(=O)c2cc(NS(=O)(=O)c3ccccc3)ccc2O1`: inactive: 1.01.

Turning to `C[C@H]1CCCCO[C@H](CN(C)C(=O)Nc2cccc3ccccc23)[C@@H](C)CN([C@@H](C)CO)C(=O)c2cc(NS(=O)(=O)c3cccs3)ccc2O1`, the relative growth is inactive: 0.959. The same measure for `Cc1cc(NC(=O)[C@@H]2CCCN2)no1`: inactive: 1.01; for `CC(C)NC(=O)Nc1ccc2c(c1)C(=O)N([C@H](C)CO)C[C@@H](C)[C@@H](CN(C)C(=O)Nc1ccc(C(F)(F)F)cc1)OCCCC[C@@H](C)O2`: inactive: 1.08; for `NCc1ccc(C(=O)N2CCCC2)cc1`: inactive: 1.01. For the compound `C[C@@H]1CN([C@@H](C)CO)C(=O)c2cccc(NC(=O)Nc3ccc(C(F)(F)F)cc3)c2O[C@@H]1CN(C)Cc1ccc(C(F)(F)F)cc1`, the relative growth is inactive: 1.03. The same measure for `COc1ccc(S(=O)(=O)N(C)C[C@@H]2Oc3c(NC(=O)Nc4cccc5ccccc45)cccc3C(=O)N([C@@H](C)CO)C[C@H]2C)c(OC)c1`: inactive: 0.836; for `COc1ccc(S(=O)(=O)Nc2ccc3c(c2)CC(=O)N([C@@H](C)CO)C[C@@H](C)[C@@H](CN(C)S(=O)(=O)c2ccc(OC)cc2)O3)cc1`: inactive: 1.03.
